# Laboratory results: article PMC4336329 (PLoS ONE, 2015)
# The campaign covered roughly 310,000 compounds. About 14,000 (4.5%) showed an effect of 50% or more. Effects have a minus sign here. Some of the results follow.
# Target: human ether-à-go-go-related gene (hERG) potassium channel (human, UniProt Q12809)
# Assay: primary screen, population patch clamp on CHO cells stably expressing hERG
# 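Further: peak tail current of the secondary pulse compared with the same well before compound.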
# Chain of human ether-à-go-go-related gene (hERG) potassium channel (Q12809 whole entry, looked up): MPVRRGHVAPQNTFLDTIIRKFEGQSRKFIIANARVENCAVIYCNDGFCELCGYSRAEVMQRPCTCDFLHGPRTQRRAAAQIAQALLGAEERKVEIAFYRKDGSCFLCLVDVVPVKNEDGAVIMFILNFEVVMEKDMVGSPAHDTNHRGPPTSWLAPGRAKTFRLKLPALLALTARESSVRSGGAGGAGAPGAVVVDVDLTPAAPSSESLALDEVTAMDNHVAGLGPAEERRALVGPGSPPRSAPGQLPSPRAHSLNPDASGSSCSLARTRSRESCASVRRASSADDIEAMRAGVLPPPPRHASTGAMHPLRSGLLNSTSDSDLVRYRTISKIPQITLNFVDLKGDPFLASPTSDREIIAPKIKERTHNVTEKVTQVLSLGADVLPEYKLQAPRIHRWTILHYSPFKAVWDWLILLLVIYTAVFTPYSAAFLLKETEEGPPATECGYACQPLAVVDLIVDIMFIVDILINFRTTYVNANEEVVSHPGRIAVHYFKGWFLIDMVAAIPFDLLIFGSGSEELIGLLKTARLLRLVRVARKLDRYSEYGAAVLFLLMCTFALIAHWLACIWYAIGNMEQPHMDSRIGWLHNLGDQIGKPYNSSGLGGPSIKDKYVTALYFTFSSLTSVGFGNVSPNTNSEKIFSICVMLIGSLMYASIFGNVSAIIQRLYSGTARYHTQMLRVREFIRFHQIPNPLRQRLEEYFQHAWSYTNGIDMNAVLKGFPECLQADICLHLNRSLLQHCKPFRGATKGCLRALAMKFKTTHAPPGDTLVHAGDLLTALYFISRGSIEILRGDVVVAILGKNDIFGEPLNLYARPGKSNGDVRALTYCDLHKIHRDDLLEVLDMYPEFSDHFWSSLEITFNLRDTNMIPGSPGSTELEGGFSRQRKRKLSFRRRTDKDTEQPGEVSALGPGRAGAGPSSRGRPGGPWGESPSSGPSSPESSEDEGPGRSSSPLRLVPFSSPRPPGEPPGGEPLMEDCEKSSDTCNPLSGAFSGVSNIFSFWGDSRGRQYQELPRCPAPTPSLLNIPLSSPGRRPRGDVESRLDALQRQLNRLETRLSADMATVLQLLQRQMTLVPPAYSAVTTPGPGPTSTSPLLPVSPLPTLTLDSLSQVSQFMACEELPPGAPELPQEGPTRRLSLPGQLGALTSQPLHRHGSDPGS
row,SMILES,"hERG current change (%, negative = inhibition) at 10uM [%]"
1,O=C(COc1ccc2c3c(c(=O)oc2c1)CCC3)Nc1ccc(CN2CCOCC2)cc1,15.1
2,Cc1nn(-c2ccccc2)cc1C(=S)Nc1ccccc1,3.16
3,CC(NC(=O)OCc1ccccc1)c1ccccc1 (stereo not drawn),-22.9
4,O=C(NCCCn1ccnc1)c1nc(Cn2cc([N+](=O)[O-])cn2)no1,-0.453
5,NC(=O)Nn1c(CCC(=O)O)ccc1-c1ccc(F)cc1,2.6
6,Cc1ccc(NC(=O)C2C(c3ccccc3)C2(Cl)Cl)c(C)c1 (stereo not drawn),1.9
7,CC(=O)c1c(C)oc(C)c1CSCc1ccc(C(=O)O)o1,0.541
8,C=CCSC1=N/C(=C\c2ccsc2)C(=O)S1,3.81
9,COCCNC(=O)c1c(N)n(Cc2ccco2)c2nc3ccccc3nc12,-6.12
10,CCN(C(=O)CN1C(=O)NC(c2ccccc2)(c2ccccc2)C1=O)c1ccccc1,0.647
11,Cc1ccc(S(=O)(=O)N2CCCCC2)cc1NC(=O)Cn1cc(C(F)(F)F)ccc1=O,-3.88
12,CC(=O)Nc1ccc(S(=O)(=O)Nc2cccc(NC(=O)c3ccco3)c2)cc1,24.4
13,Cc1ccc(-c2cc3c(N=O)c4ccccc4c-3n[nH]2)cc1,18.1
14,O=c1c2cc(N3CCOCC3)ccc2[nH]c(=S)n1CCCN1CCCCC1,-21.6
15,COc1cccc(N2CCN(C(=O)C3CCN(S(=O)(=O)c4ccc5c(c4)oc(=O)n5C)CC3)CC2)c1,-7.61
16,O=C(CSc1nnc(CNc2ccc(F)cc2)o1)N1c2ccccc2Sc2ccccc21,11
17,Cc1nn(C)c(C)c1NS(=O)(=O)c1ccc(OC(F)(F)F)cc1,13.2
18,O=C(CN1C(=O)c2ccccc2C1=O)N1CCOCC1,4.68
19,Fc1cccc(Cl)c1-c1nnc2ccc(N3CCOCC3)nn12,-6.07
20,CC(=C\C(=O)O)/C(=C/c1ccccc1)C(=O)O,15.6
21,CSCCC(NC(=O)c1ccccc1)C(=O)Nc1ccc(C)cc1 (stereo not drawn),4.39
22,CN1CCN(CCCNC(=O)CCc2nnc3n(Cc4ccccc4Cl)c(=O)c4ccccc4n23)CC1,5.29
23,Cc1[nH]n(-c2ccccc2)c(=O)c1N=Nc1cccc(C(=O)O)c1,23.1
24,COc1cccc(-n2ccnc2SCC(=O)N2CCc3ccccc32)c1,-2.28
